# The supplement of paper PMC3334620
# In all, about 33,000 sequences were measured (“E-score (-0.5 to 0.5)”: median about -0.011, highest 2% from about 0.28 on). The list shows a part of the results.
# Target: T1, Gcr1 (UniProt P07261)
# T1 sequence: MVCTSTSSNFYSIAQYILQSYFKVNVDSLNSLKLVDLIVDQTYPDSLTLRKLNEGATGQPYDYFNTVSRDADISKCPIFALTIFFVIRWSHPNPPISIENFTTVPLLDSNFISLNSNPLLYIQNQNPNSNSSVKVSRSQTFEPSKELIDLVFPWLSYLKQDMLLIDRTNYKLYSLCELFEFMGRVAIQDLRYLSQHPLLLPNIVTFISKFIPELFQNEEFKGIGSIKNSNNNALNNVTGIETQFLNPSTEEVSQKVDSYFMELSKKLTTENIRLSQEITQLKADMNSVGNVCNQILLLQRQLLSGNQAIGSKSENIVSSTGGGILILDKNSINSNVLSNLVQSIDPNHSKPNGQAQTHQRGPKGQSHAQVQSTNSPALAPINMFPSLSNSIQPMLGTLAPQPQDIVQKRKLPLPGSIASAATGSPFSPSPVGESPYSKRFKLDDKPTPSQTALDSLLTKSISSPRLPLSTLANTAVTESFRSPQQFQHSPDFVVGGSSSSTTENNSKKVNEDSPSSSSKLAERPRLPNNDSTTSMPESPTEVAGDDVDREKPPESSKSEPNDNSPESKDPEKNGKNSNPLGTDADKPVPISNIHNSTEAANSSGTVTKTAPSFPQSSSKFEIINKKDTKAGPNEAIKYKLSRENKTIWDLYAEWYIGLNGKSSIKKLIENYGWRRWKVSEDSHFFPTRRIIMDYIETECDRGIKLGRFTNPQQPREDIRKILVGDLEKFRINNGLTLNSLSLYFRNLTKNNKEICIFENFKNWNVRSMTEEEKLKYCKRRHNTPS
# Assay: PBM E-score (8-mer binding enrichment) (E-score (-0.5 to 0.5)); higher = stronger / more preferred TF binding; most listed sequences are background and not binding sites
# Details: protein concentration: 100 nM; construct: GST-full length
# Procedure: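 Universal 'all 10-mer' protein binding microarrays (Agilent AMADID 015681) probed with GST-tagged S. cerevisiae TFs (full-length or DBD) made by in vitro transcription/translation (PURExpress), about 100-200 nM. Bound TF was detected with fluorescent anti-GST. Each ungapped 8-mer (which stands for itself and its reverse complement) is scored by the PBM enrichment score (E-score), a modified Wilcoxon-Mann-Whitney statistic from -0.5 to +0.5, computed with the Universal PBM Analysis Suite. Scale: above 0.35 generally sequence-specific binding.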
row,Sequence,PBM E-score
1,CGTGGAAG,0.0771
2,GGGGGACA,0.0151
3,CCCTTAAC,-0.212
4,AGACCCTC,-0.115
5,ATCACTTC,0.101
6,CGCCATGC,-0.179
7,ATATAATA,0.0837
8,CACGCGTC,0.176
9,GGGTAACA,-0.155
10,AGAGGTCA,-0.0765
11,CGCCGTGA,-0.0716
12,CACGGGGC,-0.0351
13,CGTATTAG,0.199
14,TCTAGAGA,-0.102
15,CAGTGATC,-0.0596
16,CCATAATA,0.112
17,CCCTGAGG,-0.102
18,AGATAGTC,-0.267
19,AAAAGGTT,-0.037
20,ATTCATCC,-0.0901
21,GTTTCTTA,-0.0303
22,CCCATCGC,-0.0707

row,Sequence,PBM E-score
1,AGTGGCCG,0.149
2,CGTGACCC,-0.141
3,AGATCGAA,-0.0692
4,GGCTGAAA,0.151
5,CTCTCGCC,-0.0249
6,GAATTACA,0.181
7,GCGGGAAA,0.107
8,ATGTCGGA,0.159
9,CCTTGGAG,-0.0157
10,AACGATTG,-0.111
11,AAATTGGA,0.249
12,ACCAGGTA,-0.0515
13,AGGTAGTG,-0.0355
14,ACCGTCCT,-0.196
15,CAATGAGA,-0.137
16,ACGGTTAT,-0.00278
17,CCGTTGCG,-0.113
18,CACACGTA,-0.173
19,ATCCCTAA,-0.148
20,CGGCCAAC,-0.171
21,GCAGCGGC,0.106
22,AAAGCCGC,0.0398

row,Sequence,PBM E-score
1,GAGTGTGA,-0.181
2,GAGAAACA,0.0834
3,CGGAGGGA,0.0238
4,GAGATGGA,-0.246
5,CGCAAAGC,-0.125
6,ACGAGGGA,-0.0629
7,CTCCGAAA,0.149
8,ACCCATCT,-0.085
9,CCACTTGC,0.147
10,ATCTCCGC,0.118
11,GGTATGTA,-0.0354
12,CAAGAACA,0.0624
13,CGACTCGA,-0.0795
14,AGGCTTAA,-0.249
15,AAATGAAA,0.065
16,CGTCGGAA,-0.0149
17,ACTCGCTC,-0.0405
18,ATAGGCAA,-0.108
19,ATGTTATA,0.0737
20,AGGAACCT,0.38
21,CTAGATGC,0.224
22,AGGATTCC,0.373

row,Sequence,PBM E-score
1,AGCTCTTA,-0.0244
2,GGCCGCCA,0.277
3,CCATCTCC,-0.0122
4,AGCCCATA,-0.0753
5,GACTGTGA,-0.208
6,GCCGGACA,-0.189
7,ACGTCGGG,-0.197
8,GCGCTCGA,-0.121
9,TAATTCTA,0.194
10,CTCCTGGA,-0.0486
11,ATCCAGTG,0.255
12,CCGCGTTA,-0.239
13,CTGAGACA,-0.142
14,TTAAGCAA,0.0634
15,AGTTTAAG,0.208
16,CTCAGGAA,-0.0301
17,GATTAGGA,0.169
18,GGTGACAA,0.0154
19,TTCCTAAA,0.36
20,GCATCACC,-0.021
